Measurements as given in US9352006B2 (priority 2010, dated 2016).

Test system: B16-OVA melanoma lung metastases
Conditions: mouse, in vivo
Text: The B16 tumor cell line (ATCC CRL-6475™) is a C57BL/6-derived melanoma cell line with low immunogenicity. The ovalbumin (OVA)-expressing B16 tumor line used is a stable OVA-transfected clone in order to track tumor antigen specific T cell responses in vivo. TC-1 was derived from the primary lung epithelial cells of C57BL/6. The HPV E6/E7-expressing TC-1 tumor cells were generated to test the efficacy of various E6/E7-specific vaccines. To establish a tumor model of metastatic lung cancer and liver cancer, C57B1/6 mice were challenged with 3×10^5 tumor cells intravenously or implanted with 7×10^4 tumor cells intrahepatically.
In the intrahepatic OVA-B16/C57BL/6 tumor model, when tumors reached the size of 5×5 mm^2 or, for the OVA-B16 lung metastatic tumor model, in mice with existing tumors, 5×10^6 MDSCs loaded with nanoparticles were adoptively transferred into these tumor bearing mice. Survival of test mice was determined. For some experiments, mice were sacrificed after adoptive transfer of MDSC after 14 days. The proliferation of purified splenic T cells and lung lymphocytes in response to OT-I OVA peptide, OT-II OVA peptide or OVA protein (5 mg/mL) in the presence of irradiated naïve splenocytes was assessed. For sunitinib malate ((Sutent, Pfizer)) treatment, 0.015 mg/day was given daily for 28 days as clinical protocol. The TC-1 tumor model used the same protocol. […]

CCN(CC)CCNC(=O)c1c(C)[nH]c(/C=C2\C(=O)Nc3ccc(F)cc32)c1C [sunitinib malate]
IFNγ production in metastatic lung lymphocytes: significantly increased IFNγ production
